Laboratory results: the supplement of paper PMC11741623
Some of the results follow. Interaction screen of human proteins with wild-type SARS-CoV-2 proteins by split-DHFR complementation in yeast, 1 µg/mL methotrexate. Value = fitness of the pair (three or more lineages) minus that of the viral protein without a human partner, on a scale set by negative (0) and fused positive (1) controls, mean of up to three cultures; higher = more likely to interact. Active = false discovery rate below 0.05 (one-sided t-test) in at least one culture. Nearly all pairs are not hits, and differences among them are mostly noise (correlation between cultures about 0.3); most hits were seen in one culture only. Human sequences are the Swiss-Prot entries looked up by gene name; the clone may be another isoform. NSP2 values were corrected by the authors for a growth advantage. Listed are human proteins with a hit and a random twelfth of the others.

How the values were obtained:
Assay in all cases: yeast fitness gain over the viral ORF with no human partner (scaled fitness); higher = more likely to interact
SARS-CoV-2 E = target: SARS-CoV-2 E
Method: (§1)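 Split mouse DHFR complementation in pooled diploid yeast: human ORFeome clones carry one fragment and viral ORFs the other; barcoded lineages compete in 1 µg/mL methotrexate and fitness is read by barcode sequencing in up to three cultures.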

SARS-CoV-2 M = target: SARS-CoV-2 M
Method: as §1

SARS-CoV-2 N = target: SARS-CoV-2 N
Method: as §1

SARS-CoV-2 NSP1 = target: SARS-CoV-2 NSP1
Method: as §1

SARS-CoV-2 NSP10 = target: SARS-CoV-2 NSP10
Method: as §1

SARS-CoV-2 NSP12 = target: SARS-CoV-2 NSP12
Method: as §1

SARS-CoV-2 NSP13 = target: SARS-CoV-2 NSP13
Method: as §1

SARS-CoV-2 NSP14 = target: SARS-CoV-2 NSP14
Method: as §1

SARS-CoV-2 NSP15 = target: SARS-CoV-2 NSP15
Method: as §1

SARS-CoV-2 NSP16 = target: SARS-CoV-2 NSP16
Method: as §1

SARS-CoV-2 NSP2 = target: SARS-CoV-2 NSP2
Method: as §1

SARS-CoV-2 NSP4 = target: SARS-CoV-2 NSP4
Method: as §1

SARS-CoV-2 NSP5 = target: SARS-CoV-2 NSP5
Method: as §1

SARS-CoV-2 NSP6 = target: SARS-CoV-2 NSP6
Method: as §1

SARS-CoV-2 NSP7 = target: SARS-CoV-2 NSP7
Method: as §1

SARS-CoV-2 NSP8 = target: SARS-CoV-2 NSP8
Method: as §1

SARS-CoV-2 NSP9 = target: SARS-CoV-2 NSP9
Method: as §1

SARS-CoV-2 ORF10 = target: SARS-CoV-2 ORF10
Method: as §1

SARS-CoV-2 ORF3A = target: SARS-CoV-2 ORF3A
Method: as §1

SARS-CoV-2 ORF3B = target: SARS-CoV-2 ORF3B
Method: as §1

SARS-CoV-2 ORF6 = target: SARS-CoV-2 ORF6
Method: as §1

SARS-CoV-2 ORF7A = target: SARS-CoV-2 ORF7A
Method: as §1

SARS-CoV-2 ORF7B = target: SARS-CoV-2 ORF7B
Method: as §1

SARS-CoV-2 ORF8 = target: SARS-CoV-2 ORF8
Method: as §1

SARS-CoV-2 ORF9B = target: SARS-CoV-2 ORF9B
Method: as §1

[1] = target: SARS-CoV-2 ORF9Bwu (the 73-codon ORF)
Method: as §1

SARS-CoV-2 S = target: SARS-CoV-2 S
Method: as §1

Measured: yeast fitness gain

B1: GMPR, P36959 (protein)
chain: MPRIDADLKLDFKDVLLRPKRSSLKSRAEVDLERTFTFRNSKQTYSGIPIIVANMDTVGTFEMAAVMSQHSMFTAIHKHYSLDDWKLFATNHPECLQNVAVSSGSGQNDLEKMTSILEAVPQVKFICLDVANGYSEHFVEFVKLVRAKFPEHTIMAGNVVTGEMVEELILSGADIIKVGVGPGSVCTTRTKTGVGYPQLSAVIECADSAHGLKGHIISDGGCTCPGDVAKAFGAGADFVMLGGMFSGHTECAGEVFERNGRKLKLFYGMSSDTAMNKHAGGVAEYRASEGKTVEVPYKGDVENTILDILGGLRSTCTYVGAAKLKELSRRATFIRVTQQHNTVFS
inactive: SARS-CoV-2 E 0.031 | SARS-CoV-2 M 0.0224 | SARS-CoV-2 N 0.0691 | SARS-CoV-2 NSP1 = 0.00682 | SARS-CoV-2 NSP10 = 0.0311 | SARS-CoV-2 NSP12 = 0.0387 | SARS-CoV-2 NSP13 = 0.0197 | SARS-CoV-2 NSP14 = -0.106 | SARS-CoV-2 NSP15 = 0.0587 | SARS-CoV-2 NSP16 = -0.0337 | SARS-CoV-2 NSP2 = -0.0813 | SARS-CoV-2 NSP4 = -0.132 | SARS-CoV-2 NSP5 = 0.0099 | SARS-CoV-2 NSP6 = 0.0369 | SARS-CoV-2 NSP7 = 0.0175 | SARS-CoV-2 NSP8 = 0.0562 | SARS-CoV-2 NSP9 = 0.0177 | SARS-CoV-2 ORF10 = 0.0435 | SARS-CoV-2 ORF3A 0.0139 | SARS-CoV-2 ORF3B 0.0224 | SARS-CoV-2 ORF6 = 0.00781 | SARS-CoV-2 ORF7A -0.0098 | SARS-CoV-2 ORF7B 0.00756 | SARS-CoV-2 ORF8 = -0.00334 | SARS-CoV-2 ORF9B -0.0157 | [1] 0.0159 | SARS-CoV-2 S 0.00574

B2: GIP, P09681 (protein)
chain: MVATKTFALLLLSLFLAVGLGEKKEGHFSALPSLPVGSHAKVSSPQPRGPRYAEGTFISDYSIAMDKIHQQDFVNWLLAQKGKKNDWKHNITQREARALELASQANRKEEEAVEPQSSPAKNPSDEDLLRDLLIQELLACLLDQTNLCRLRSR
inactive: SARS-CoV-2 E 0.119 | SARS-CoV-2 NSP1 = 0.0327 | SARS-CoV-2 NSP5 = -0.0329 | SARS-CoV-2 NSP6 = 0.036 | SARS-CoV-2 NSP7 = -0.116 | SARS-CoV-2 NSP8 = -0.0768 | SARS-CoV-2 ORF10 = -0.0164 | SARS-CoV-2 ORF3A 0.0478

B3: CNN2, Q99439 (protein)
chain: MSSTQFNKGPSYGLSAEVKNRLLSKYDPQKEAELRTWIEGLTGLSIGPDFQKGLKDGTILCTLMNKLQPGSVPKINRSMQNWHQLENLSNFIKAMVSYGMNPVDLFEANDLFESGNMTQVQVSLLALAGKAKTKGLQSGVDIGVKYSEKQERNFDDATMKAGQCVIGLQMGTNKCASQSGMTAYGTRRHLYDPKNHILPPMDHSTISLQMGTNKCASQVGMTAPGTRRHIYDTKLGTDKCDNSSMSLQMGYTQGANQSGQVFGLGRQIYDPKYCPQGTVADGAPSGTGDCPDPGEVPEYPPYYQEEAGY
inactive: SARS-CoV-2 E 0.0768 | SARS-CoV-2 M 0.031 | SARS-CoV-2 N 0.0777 | SARS-CoV-2 NSP1 = 0.0647 | SARS-CoV-2 NSP10 = 0.00247 | SARS-CoV-2 NSP12 = 0.0538 | SARS-CoV-2 NSP13 = -0.011 | SARS-CoV-2 NSP14 = 0.023 | SARS-CoV-2 NSP15 = 0.0225 | SARS-CoV-2 NSP16 = 0.0405 | SARS-CoV-2 NSP2 = -0.046 | SARS-CoV-2 NSP4 = 0.011 | SARS-CoV-2 NSP5 = 0.031 | SARS-CoV-2 NSP6 = -0.0202 | SARS-CoV-2 NSP7 = -0.0258 | SARS-CoV-2 NSP8 = 0.0553 | SARS-CoV-2 NSP9 = 0.066 | SARS-CoV-2 ORF10 = 0.012 | SARS-CoV-2 ORF3A 0.0966 | SARS-CoV-2 ORF3B 0.0133 | SARS-CoV-2 ORF6 = 0.0337 | SARS-CoV-2 ORF7A 0.0198 | SARS-CoV-2 ORF7B -0.03 | SARS-CoV-2 ORF8 = 0.00965 | SARS-CoV-2 ORF9B 0.0179 | [1] -0.0729 | SARS-CoV-2 S -0.0254

B4: C3orf25, Q6NXP0 (protein)
chain: MDDDYEAYHSLFLSLLGLCPSKTPINENAPVFDPEPVIAHCFKQFQQKDFRLPQTRRRIIMVPRKEDQTPLNPASQPQAPPKPIPSFKVLEARDIQEQPEDRKTWLSQRSKLRQELESFGDVKRWLENKPSITPSEAKVLHMIHEEQSAQPNASQATTRTTRKKAPRLSRLSRQMVPQLQLPEPPALSVMYSYLHSRKIKILEIFHKVGQGENQRITREEFIAAVKAVGVPLKNQEVEDIVIYLSSLGKHNTITMDILANTYKQWSMAQQRSSLATAREHYILAKHRDSLKGPLKKQEVDSAPQLPKVDLLTVPAVDTQMETRPMTLEEMEEVGKRYRERQRQHKLTIPSIQYTEQCHLVRCGNRHFDEHCLPSTIHGDMRELIDSARRHNFLVYLQCWKLCKSYGLPLTEDILMKALLYPGDKIIFQMDKVCPIRQPGGYYSDWKVFSPNLALLRSQGPGKSKRTDKKTPKKSKKMRFKEFEEFTRKLKVKRSSGLQQTHPNSFWPGHLLDKLQLYLPTVATDRSLALFSCVQHQPHVYPATYHPDHWWPLRNKNYMTHAHYDAAKVYYIN
inactive: SARS-CoV-2 E 0.0407 | SARS-CoV-2 M 0.00467 | SARS-CoV-2 N 0.0621 | SARS-CoV-2 NSP1 = -0.0191 | SARS-CoV-2 NSP10 = 0.017 | SARS-CoV-2 NSP12 = 0.0377 | SARS-CoV-2 NSP13 = 0.0131 | SARS-CoV-2 NSP14 = 0.16 | SARS-CoV-2 NSP15 = 0.0963 | SARS-CoV-2 NSP16 = 0.0385 | SARS-CoV-2 NSP2 = -0.162 | SARS-CoV-2 NSP4 = 0.0357 | SARS-CoV-2 NSP5 = 0.00364 | SARS-CoV-2 NSP6 = 0.0436 | SARS-CoV-2 NSP7 = 0.0563 | SARS-CoV-2 NSP8 = 0.0235 | SARS-CoV-2 NSP9 = 0.00862 | SARS-CoV-2 ORF10 = -0.0102 | SARS-CoV-2 ORF3A 0.0985 | SARS-CoV-2 ORF3B 0.00141 | SARS-CoV-2 ORF6 = 0.0214 | SARS-CoV-2 ORF7A -0.0561 | SARS-CoV-2 ORF7B -0.0123 | SARS-CoV-2 ORF8 = 0.00314 | SARS-CoV-2 ORF9B 0.0207 | [1] 0.0322 | SARS-CoV-2 S 0.0758

B5: C7orf53, Q8N8F7 (protein)
chain: MTHSSQDTGSCGIQEDGKLYVVDSINDLNKLNLCPAGSQHLFPLEDKIPVLGTNSGNGSRSLFFVGLLIVLIVSLALVFFVIFLIVQTGNKMDDVSRRLTAEGKDIDDLKRINNMIVKRLNQLNQLDSEQN
active: SARS-CoV-2 ORF6 = 0.0419
inactive: SARS-CoV-2 E 0.048 | SARS-CoV-2 M 0.037 | SARS-CoV-2 N 0.0548 | SARS-CoV-2 NSP1 = 0.0642 | SARS-CoV-2 NSP10 = 0.0343 | SARS-CoV-2 NSP12 = 0.0552 | SARS-CoV-2 NSP13 = 0.0209 | SARS-CoV-2 NSP14 = 0.00413 | SARS-CoV-2 NSP15 = 0.0192 | SARS-CoV-2 NSP16 = 0.0122 | SARS-CoV-2 NSP2 = -0.104 | SARS-CoV-2 NSP4 = 0.124 | SARS-CoV-2 NSP5 = -0.018 | SARS-CoV-2 NSP6 = 0.0427 | SARS-CoV-2 NSP7 = -0.0999 | SARS-CoV-2 NSP8 = 0.0541 | SARS-CoV-2 NSP9 = 0.0305 | SARS-CoV-2 ORF10 = 0.0183 | SARS-CoV-2 ORF3A 0.0206 | SARS-CoV-2 ORF3B 0.00319 | SARS-CoV-2 ORF7A 0.00734 | SARS-CoV-2 ORF7B 0.125 | SARS-CoV-2 ORF8 = 0.0253 | SARS-CoV-2 ORF9B -0.00213 | [1] 0.0144 | SARS-CoV-2 S 0.028
